Where “and” joins values, the source holds several entries; their conditions need not be identical. Equal entries are not always repeated. Hit rate of the full screen: of about 150,000 compounds, about 540 (0.36%) showed an effect of 50% or more. The list shows a part of the results.
System: Plasmodium falciparum
Test: Primary screen in NF54 nanoGlo assay, in single point, at 2uM, 72h; a lower Z score goes with more inhibition
Type: functional, Erythrocyte
Settings: timepoint 72 hour

Row | SMILES | % Inhibition [%] | Z score | % Inhibition (2 µM)
1 | O=C(CCCOc1ccc(Cl)cc1Cl)NC1CCC(CC2CCC(NC(=O)CCCOc3ccc(Cl)cc3Cl)CC2)CC1 (stereo not given) | -4 | 0.61 | –
2 | Cc1ccc(-c2csc(-c3nc(-c4ccccc4)cs3)n2)c(C)c1 | 10 | -1.13 | –
3 | CC1CCCCC1OCCNS(C)(=O)=O (stereo not given) | -4 | 0.34 | –
4 | Cc1ccc(NC(=O)CNc2cc(S(=O)(=O)N3CCOCC3)ccc2NC[C@H]2CCCO2)cc1F | -10 | 1.67 | –
5 | OC1CCC(CNc2ncc(Cl)cc2Br)C1 (stereo not given) | -10 | 1.01 | –
6 | COCCOc1cc(C(=O)OC)ccc1N | 3 | -0.36 | –
7 | Cc1ccc2c(c1)NC(=O)c1cc(S(=O)(=O)N3CCCCC3)c(N3CCOCC3)cc1O2 | -6 | 0.85 | –
8 | O=C(NC1CCCCC1)[C@H](Cc1ccccc1)n1cnnn1 | -1 | 0.08 | –
9 | CCCn1nccc1C(=O)NC[C@H]1Cc2ccccc2O1 | -16 | 2.08 | –
10 | O=S(=O)(c1ccc(OC2CC2)cc1)N1CCn2nncc2C1 | -3 | 0.43 | –
11 | O=C([C@@H]1CC(Cc2ccccc2Cl)=NO1)N1CCCCCC1 | 14 | -1.83 | –
12 | CCC(CC)n1ncc2c1NC(=O)C[C@@H]2c1cccc2nsnc12 | -5 | 1.04 | –
13 | O=C1NCCCCCN(Cc2c[nH]nc2-c2cccs2)[C@H]2CCC[C@@H]12 | 4 | -0.51 | –
14 | COCC(=O)N1CC[C@@]2(CCCN(CC3CC3)C2=O)C1 | -13 | 1.87 | –
15 | CCc1cccc(NC(=O)CN2CCC[C@H](n3cncn3)C2)c1 | -16 | 1.72 | –
16 | CCC(C)C(NC(=O)Nc1cccc(OC)c1)C(=O)O (stereo not given) | -8 | 1.18 | –
17 | O=C(NCCc1ccc(Cl)cc1)N1C[C@@H](F)[C@@H](F)C1 | 2 | -0.17 | –
18 | CCn1nc(CO)c2c1CCN(S(=O)(=O)N(C)Cc1ccccc1)C2 | -8 | 0.91 | –
19 | C[C@H](NC(=O)N(C)Cc1nnc[nH]1)c1cc(Cl)ccc1Cl | -4 | 0.64 | –
20 | O=C(Cc1ccc(N(Cc2cccc(F)c2)C(=O)C2CCCC2)cc1)NCCN1CCCCC1 | 59 | -9.89 | –
21 | COc1cc(C)nc(NC(=O)c2ccc(C)nc2C)n1 | 0 | -0.02 | –
22 | COC(=O)Cc1nnc2cc(Cl)ccc2n1 | 6 | -0.93 | –
23 | CCN(CC)C(=O)C1CCN(C2CCN(c3ccc(NC(=O)c4ccc(C)cc4C)cc3)CC2)CC1 | -3 | 0.58 | –
24 | Cc1cc(O)nc(C(C)NC(C)c2cc(C)oc2C)n1 (stereo not given) | -47 | 5.46 | –
25 | CCc1ccc(C(=O)N2CCC(N3C(=O)CC[C@H]3C(=O)NCc3ccccc3)CC2)cc1 | -9 | 1.57 | –
26 | CCn1c(COC(=O)[C@H](C)N2C(=O)c3ccc(C)cc3C2=O)nc2cc(S(=O)(=O)N(C)C)ccc21 | -6 | 0.71 | –
27 | OC[C@H]1CCCN1C1Cc2ccccc2C1 | -11 | 1.38 | –

Row | SMILES | % Inhibition [%] | Z score | % Inhibition (2 µM)
28 | Cn1cc(C(NC(=O)c2cc(-c3ccccc3F)n[nH]2)[C@H]2C[C@@H](O)C2)cn1 (stereo not given in full) | -15 | 1.49 | –
29 | C[C@@H](C(=O)Nc1scnc1C1CC1)n1cncn1 | -11 | 1.09 | –
30 | O=C(NC[C@H]1CCCN1CC(F)(F)F)c1cnccn1 | -4 | 0.71 | –
31 | O=C(Cc1n[nH]c(=O)c2ccccc12)Nn1cnc2ccccc2c1=O | -4 | 0.6 | –
32 | CC(C)c1ccc2c(c1)CCC1C(C)(CNCc3ccc4c(c3)OCO4)CCCC21C (stereo not given) | 18 | -2.21 | –
33 | C[C@@H]1C(=O)N(c2cnn(CC(F)F)c2)C(=O)N1C | 1 | -0.15 | –
34 | CCCN1C(=O)[C@@H]2CC[C@H]1CN(C(=O)Cc1ccc(OC)c(OC)c1)C2 | -5 | 1.03 | –
35 | C[C@@H](Cn1ncc2ccccc2c1=O)Nc1ncnc(N)c1Cl | -4 | 0.6 | –
36 | Cc1cc(C(=O)N2CCc3nc(NC(=O)NC4CCCC4)sc3C2)no1 | -10 | 1.42 | –
37 | CCc1onc(C)c1CN[C@@H](c1ccc(F)cc1)c1cccc(S(C)(=O)=O)c1 | 7 | -0.76 | –
38 | CN1C(=O)CN(CC(=O)Nc2cccc(CCC(F)(F)F)c2)C1=O | -6 | 0.69 | –
39 | CC(C)CN1CCO[C@@H](COC(=O)c2cc(C#N)cn2C)C1 | -9 | 1.72 | –
40 | O=C(Cc1nc(Cc2ccc(F)cc2)n[nH]1)Nc1cc(F)cc(F)c1 | -16 | 2.1 | –
41 | CC[C@H](C)OCC(=O)Nc1nc(-c2ccncc2)ns1 | -11 | 1.13 | –
42 | CCOc1cccc(NS(=O)(=O)c2cscc2C(F)F)n1 | -7 | 1.25 | –
43 | COC(=O)[C@H](Cc1nccn1C)NC(=O)CCC1CCCCCC1 | -8 | 1.29 | –
44 | Cc1cccc(NC(=O)C2CCN(S(=O)(=O)c3c(C)nn(-c4ccccc4)c3C)CC2)c1 | 3 | -0.49 | –
45 | O=C(c1c(F)cccc1F)N1C[C@@H](CN2CCCCC2)[C@@H](CO)C1 | 0 | -0.01 | –
46 | CN1CCN([C@@H](CNC(=O)Nc2ccncc2)c2cccs2)CC1 | 2 | -0.27 | –
47 | CCCN(CC(=O)N1CCN(S(=O)(=O)c2ccc3c(c2)CCCC3)CC1)CC(F)F | -7 | 0.91 | –
48 | COc1cccc(C[C@@]2(C3CCNCC3)NC(=O)N(CC3CCC3)C2=O)c1 | 3 | -0.67 | –
49 | CS(=O)(=O)c1ccc(CNC(=O)NC[C@H]2CCC3(CCCC3)O2)s1 | -5 | 1.01 | –
50 | COc1ccc(-c2noc(CC3CCNCC3)n2)cc1 | – | – | -7% and 0%
51 | CS(=O)(=O)N1C[C@H]2CCN(C(=O)c3cc4ccccc4[nH]3)C[C@@]2(CO)C1 | -11 | 1.25 | –
52 | CCN(C(=O)c1ccoc1C)c1ccccc1 | -4 | 0.47 | –
53 | Cc1nc(CN(C)C(=O)c2sc(C(C)C)nc2C)cs1 | -17 | 1.67 | –

From ChEMBL document CHEMBL4888484, “Replenishing the malaria drug discovery pipeline: Screening and hit evaluation of the MMV Hit Generation Library 1 (HGL1) against asexual blood stage Plasmodium falciparum ,using a nano luciferase reporter read-out” (2022)
